Publication PMC9371921, “Strand annealing and motor driven activities of SMARCAL1 and ZRANB3 are stimulated by RAD51 and the paralog complex” (Nucleic Acids Research, 2022)
These are yes or no findings as the source states them, for the method shown. Some binding calls cover weakened binding; strength is not graded here. Where a sequence is shown, tags or fusion partners need not be part of it.

How the values were obtained:
[1] = biological target: T1, RAD51 paralog complex RAD51B-RAD51C-RAD51D-XRCC2 (BCDX2) (human) (UniProt O15315+O43502+O75771+O43543); assay: pull-down; anti-His antibody on Dynabeads Protein G, bound to purified BCDX2 (1 μg, bait); purified SMARCAL1 or ZRANB3 (1 μg, prey) in IP buffer (25 mM Tris-HCl pH 7.5, 100 mM NaCl, 3 mM EDTA, 0.5 mM DTT, BSA), 1 h at 4°C; silver staining or Western blot with anti-FLAG and anti-His; both purified
T1 sequence 1: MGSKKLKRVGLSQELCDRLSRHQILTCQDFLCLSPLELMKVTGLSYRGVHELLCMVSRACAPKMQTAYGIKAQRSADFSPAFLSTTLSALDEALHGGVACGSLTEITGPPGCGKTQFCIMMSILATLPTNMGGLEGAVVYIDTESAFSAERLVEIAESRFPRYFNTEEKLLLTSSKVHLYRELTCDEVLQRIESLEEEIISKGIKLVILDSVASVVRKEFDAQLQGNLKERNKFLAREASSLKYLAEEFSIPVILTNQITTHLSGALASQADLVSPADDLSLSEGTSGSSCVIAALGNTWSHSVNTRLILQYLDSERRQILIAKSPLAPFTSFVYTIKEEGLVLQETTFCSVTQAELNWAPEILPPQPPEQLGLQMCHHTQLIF
T1 sequence 2: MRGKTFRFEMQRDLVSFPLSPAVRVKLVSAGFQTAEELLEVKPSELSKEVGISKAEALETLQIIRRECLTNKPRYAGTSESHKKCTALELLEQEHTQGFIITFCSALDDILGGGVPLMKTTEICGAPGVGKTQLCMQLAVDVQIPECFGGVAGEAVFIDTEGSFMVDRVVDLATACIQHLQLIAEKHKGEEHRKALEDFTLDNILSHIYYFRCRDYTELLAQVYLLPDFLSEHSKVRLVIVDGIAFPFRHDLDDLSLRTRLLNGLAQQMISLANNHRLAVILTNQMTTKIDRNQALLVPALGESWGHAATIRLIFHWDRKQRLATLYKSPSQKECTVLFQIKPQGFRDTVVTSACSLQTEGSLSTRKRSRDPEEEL
T1 sequence 3: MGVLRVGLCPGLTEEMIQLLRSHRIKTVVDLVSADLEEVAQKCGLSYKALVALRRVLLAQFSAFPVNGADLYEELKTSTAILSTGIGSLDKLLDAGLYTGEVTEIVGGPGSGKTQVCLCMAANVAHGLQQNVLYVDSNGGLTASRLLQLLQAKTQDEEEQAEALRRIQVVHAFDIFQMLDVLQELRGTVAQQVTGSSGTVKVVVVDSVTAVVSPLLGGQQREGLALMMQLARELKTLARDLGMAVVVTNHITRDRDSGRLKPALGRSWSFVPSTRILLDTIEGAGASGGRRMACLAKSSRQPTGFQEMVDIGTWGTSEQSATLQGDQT
T1 sequence 4: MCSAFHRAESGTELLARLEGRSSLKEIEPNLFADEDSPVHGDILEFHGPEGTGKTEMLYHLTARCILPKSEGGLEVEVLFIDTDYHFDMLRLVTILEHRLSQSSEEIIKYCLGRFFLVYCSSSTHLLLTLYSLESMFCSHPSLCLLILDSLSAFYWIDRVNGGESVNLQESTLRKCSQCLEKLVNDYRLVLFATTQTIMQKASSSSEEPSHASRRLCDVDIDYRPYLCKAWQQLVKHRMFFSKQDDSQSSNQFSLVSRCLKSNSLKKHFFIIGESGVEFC

FLAG-ZRANB3 = biological target: T2, FLAG-ZRANB3 (human, UniProt Q5FWF4 1-1079); assay: mass photometry; 2 μl (50 nM) protein solution added into 18 μl protein elution buffer; movie recorded for 1 min; Refeyn 2MP mass photometer, NativeMark size marker; both purified
T2 construct: also called ZRANB3 WT
T2 sequence (looked up): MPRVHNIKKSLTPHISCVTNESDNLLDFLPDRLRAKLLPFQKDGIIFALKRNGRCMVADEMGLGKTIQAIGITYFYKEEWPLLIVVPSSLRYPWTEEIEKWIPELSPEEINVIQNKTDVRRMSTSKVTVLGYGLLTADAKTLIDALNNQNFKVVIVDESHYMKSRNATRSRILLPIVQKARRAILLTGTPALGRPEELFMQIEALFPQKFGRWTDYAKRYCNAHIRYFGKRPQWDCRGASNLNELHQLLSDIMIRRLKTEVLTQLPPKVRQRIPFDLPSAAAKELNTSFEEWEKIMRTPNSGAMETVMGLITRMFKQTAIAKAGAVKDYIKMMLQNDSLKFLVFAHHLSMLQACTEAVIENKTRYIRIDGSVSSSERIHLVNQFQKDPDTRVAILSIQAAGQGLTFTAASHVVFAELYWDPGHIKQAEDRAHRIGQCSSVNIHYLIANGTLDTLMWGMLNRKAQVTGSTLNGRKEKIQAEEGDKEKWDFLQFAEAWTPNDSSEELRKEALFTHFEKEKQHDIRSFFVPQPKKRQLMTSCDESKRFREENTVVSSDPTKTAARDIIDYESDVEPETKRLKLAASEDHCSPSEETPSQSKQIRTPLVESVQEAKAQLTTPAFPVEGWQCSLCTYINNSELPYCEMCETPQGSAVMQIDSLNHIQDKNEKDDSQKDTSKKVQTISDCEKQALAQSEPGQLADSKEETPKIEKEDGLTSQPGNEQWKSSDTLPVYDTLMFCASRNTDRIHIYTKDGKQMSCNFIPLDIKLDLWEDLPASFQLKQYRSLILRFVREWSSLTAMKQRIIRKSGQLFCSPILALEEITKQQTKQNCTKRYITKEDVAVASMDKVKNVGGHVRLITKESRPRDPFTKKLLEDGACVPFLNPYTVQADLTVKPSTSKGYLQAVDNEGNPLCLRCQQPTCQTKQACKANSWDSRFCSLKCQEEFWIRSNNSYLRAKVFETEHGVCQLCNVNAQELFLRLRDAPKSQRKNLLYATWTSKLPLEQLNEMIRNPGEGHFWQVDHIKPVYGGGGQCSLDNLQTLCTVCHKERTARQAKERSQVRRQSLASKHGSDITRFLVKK

B1: FLAG-SMARCAL1 (enzyme, UniProt Q9NZC9 1-954)
chain: MSLPLTEEQRKKIEENRQKALARRAEKLLAEQHQRTSSGTSIAGNPFQAKQGPSQNFPRESCKPVSHGVIFKQQNLSSSSNADQRPHDSHSFQAKGIWKKPEEMPTACPGHSPRSQMALTGISPPLAQSPPEVPKQQLLSYELGQGHAQASPEIRFTPFANPTHKPLAKPKSSQETPAHSSGQPPRDAKLEAKTAKASPSGQNISYIHSSSESVTPRTEGRLQQKSGSSVQKGVNSQKGKCVRNGDRFQVLIGYNAELIAVFKTLPSKNYDPDTKTWNFSMNDYSALMKAAQSLPTVNLQPLEWAYGSSESPSTSSEGQAGLPSAPSLSFVKGRCMLISRAYFEADISYSQDLIALFKQMDSRRYDVKTRKWSFLLEEHSKLIAKVRCLPQVQLDPLPTTLTLAFASQLKKTSLSLTPDVPEADLSEVDPKLVSNLMPFQRAGVNFAIAKGGRLLLADDMGLGKTIQAICIAAFYRKEWPLLVVVPSSVRFTWEQAFLRWLPSLSPDCINVVVTGKDRLTAGLINIVSFDLLSKLEKQLKTPFKVVIIDESHFLKNSRTARCRAAMPVLKVAKRVILLSGTPAMSRPAELYTQIIAVKPTFFPQFHAFGLRYCDAKRMPWGWDYSGSSNLGELKLLLEEAVMLRRLKSDVLSQLPAKQRKIVVIAPGRINARTRAALDAAAKEMTTKDKTKQQQKDALILFFNRTAEAKIPSVIEYILDLLESGREKFLVFAHHKVVLDAITQELERKHVQHIRIDGSTSSAEREDLCQQFQLSERHAVAVLSITAANMGLTFSSADLVVFAELFWNPGVLIQAEDRVHRIGQTSSVGIHYLVAKGTADDYLWPLIQEKIKVLAEAGLSETNFSEMTESTDYLYKDPKQQKIYDLFQKSFEKEGSDMELLEAAESFDPGSASGTSGSSSQNMGDTLDESSLTASPQKKRRFEFFDNWDSFTSPL
[1]
  binding: binds

B2: FLAG-ZRANB3 (enzyme, UniProt Q5FWF4 1-1079)
chain: T2 sequence (looked up)
[1]
  binding: binds
FLAG-ZRANB3
  binding: binds weakly
